# Results taken from the supplement of paper PMC4604168 (melanoma cell lines).
# Some of the results follow. Single values are uncertain, as repeats are few or missing.
# Tests used:
# Assay in all cases: cell count relative to DMSO control; melanoma cells; higher = more viable cells
# MeWo = details: library dose: low library concentration; 72 h
# RPMI7951 = details: library dose: low library concentration; 72 h
# RVH-421 = details: library dose: low library concentration; 72 h
# SkMel28 = details: library dose: low library concentration; 72 h
# SkMel2 = details: library dose: low library concentration; 72 h
# SkMel30 = details: library dose: low library concentration; 72 h
# SkMel5 = details: library dose: low library concentration; 72 h
# UACC257 = details: library dose: low library concentration; 72 h
# UACC62 = details: library dose: low library concentration; 72 h
# WM115 = details: library dose: low library concentration; 72 h
# WM1716 = details: library dose: low library concentration; 72 h
# WM1745 = details: library dose: low library concentration; 72 h
# WM3526 = details: library dose: low library concentration; 72 h
# WM3619 = details: library dose: low library concentration; 72 h
# WM451Lu = details: library dose: low library concentration; 72 h
# MZ2-MEL = details: library dose: low library concentration; 72 h
# 501Mel = details: library dose: standard library concentration; 72 h
# A101D = details: library dose: standard library concentration; 72 h
# A2058 = details: library dose: standard library concentration; 72 h
# A375 = details: library dose: standard library concentration; 72 h
smiles,measurement,setting,value
"Nc1ccn([C@@H]2O[C@H](CO)[C@@H](O)C2(F)F)c(=O)n1 [gemcitabine] + Cn1cc(/C=C2\C(=O)Nc3cccnc32)c2ccccc21 [GW441756] (first compound 0.0004 µM, partner dose 0.4 µM)",cell count,MeWo,113%
same,cell count,RPMI7951,94.1%
same,cell count,RVH-421,82.7%
same,cell count,SkMel28,86.8%
same,cell count,SkMel2,93.6%
same,cell count,SkMel30,98.6%
same,cell count,SkMel5,80.3%
same,cell count,UACC257,107%
same,cell count,UACC62,94.4%
same,cell count,WM115,93.7%
same,cell count,WM1716,106%
same,cell count,WM1745,87.8%
same,cell count,WM3526,116%
same,cell count,WM3619,88.6%
same,cell count,WM451Lu,116%
"CO[C@H]1C[C@@H]2CC[C@@H](C)[C@@](O)(O2)C(=O)C(=O)N2CCCC[C@H]2C(=O)O[C@H]([C@H](C)C[C@@H]2CC[C@@H](OCCO)[C@H](OC)C2)CC(=O)[C@H](C)/C=C(\C)[C@@H](O)[C@@H](OC)C(=O)[C@H](C)C[C@H](C)/C=C/C=C/C=C/1C [everolimus] + CS(=O)(=O)CCNCc1ccc(-c2ccc3ncnc(Nc4ccc(OCc5cccc(F)c5)c(Cl)c4)c3c2)o1 [lapatinib] (first compound 0.02 µM, partner dose 0.8 µM)",cell count,MZ2-MEL,79.3%
same,cell count,MeWo,61.3%
same,cell count,RPMI7951,69.2%
same,cell count,RVH-421,73.5%
same,cell count,SkMel28,44.1%
same,cell count,SkMel30,68%
same,cell count,UACC62,58.2%
same,cell count,WM115,69.9%
same,cell count,WM1716,81.5%
same,cell count,WM1745,85.1%
same,cell count,WM3526,63.8%
same,cell count,WM3619,85.4%
same,cell count,WM451Lu,73.8%
"CO[C@H]1C[C@@H]2CC[C@@H](C)[C@@](O)(O2)C(=O)C(=O)N2CCCC[C@H]2C(=O)O[C@H]([C@H](C)C[C@@H]2CC[C@@H](OCCO)[C@H](OC)C2)CC(=O)[C@H](C)/C=C(\C)[C@@H](O)[C@@H](OC)C(=O)[C@H](C)C[C@H](C)/C=C/C=C/C=C/1C [everolimus] + c1cc(-c2cnn3cc(-c4ccc(OCCN5CCCCC5)cc4)cnc23)ccn1 [Dorsomorphin] (first compound 0.02 µM, partner dose 0.4 µM)",cell count,MZ2-MEL,92.6%
same,cell count,MeWo,79.5%
same,cell count,RPMI7951,81.3%
same,cell count,RVH-421,93.5%
same,cell count,SkMel28,61.2%
same,cell count,SkMel30,56%
same,cell count,SkMel5,85.6%
same,cell count,UACC257,74.6%
same,cell count,UACC62,76.8%
same,cell count,WM115,79.3%
same,cell count,WM1716,86.6%
same,cell count,WM1745,90.5%
same,cell count,WM3526,66.5%
same,cell count,WM3619,93.1%
same,cell count,WM451Lu,77.4%
"CO[C@H]1C[C@@H]2CC[C@@H](C)[C@@](O)(O2)C(=O)C(=O)N2CCCC[C@H]2C(=O)O[C@H]([C@H](C)C[C@@H]2CC[C@@H](OCCO)[C@H](OC)C2)CC(=O)[C@H](C)/C=C(\C)[C@@H](O)[C@@H](OC)C(=O)[C@H](C)C[C@H](C)/C=C/C=C/C=C/1C [everolimus] + C=CCn1c(=O)c2cnc(Nc3ccc(N4CCN(C)CC4)cc3)nc2n1-c1cccc(C(C)(C)O)n1 [MK1775] (first compound 0.02 µM, partner dose 0.02 µM)",cell count,MZ2-MEL,70.7%
same,cell count,MeWo,70.4%
same,cell count,RPMI7951,81.4%
same,cell count,RVH-421,91.6%
same,cell count,SkMel28,55.5%
same,cell count,SkMel30,76.9%
same,cell count,SkMel5,66.9%
same,cell count,UACC257,62.7%
same,cell count,UACC62,68.2%
same,cell count,WM115,61.2%
same,cell count,WM1716,70.3%
same,cell count,WM1745,70.7%
same,cell count,WM3526,61.1%
same,cell count,WM3619,51.4%
same,cell count,WM451Lu,92.8%
"CC(=O)O[C@@]12CO[C@@H]1C[C@H](O)[C@@]1(C)C(=O)[C@H](O)C3=C(C)[C@@H](OC(=O)[C@H](O)[C@@H](NC(=O)OC(C)(C)C)c4ccccc4)C[C@@](O)([C@@H](OC(=O)c4ccccc4)[C@H]21)C3(C)C [Docetaxel] + Cc1cc([N+](=O)[O-])ccc1NS(=O)(=O)c1cc(Cl)ccc1Cl [FH535] (first compound 0.0001 µM, partner dose 1 µM)",cell count,MeWo,50.4%
same,cell count,RPMI7951,39.3%
same,cell count,RVH-421,90.5%
same,cell count,SkMel28,38.6%
same,cell count,SkMel2,49.2%
same,cell count,SkMel30,50%
same,cell count,SkMel5,85.3%
same,cell count,UACC257,43.5%
same,cell count,UACC62,42%
same,cell count,WM115,59.9%
same,cell count,WM1716,36.2%
same,cell count,WM1745,60.4%
same,cell count,WM3526,45.3%
same,cell count,WM3619,61.9%
same,cell count,WM451Lu,57.1%
"CO[C@H]1C[C@@H]2CC[C@@H](C)[C@@](O)(O2)C(=O)C(=O)N2CCCC[C@H]2C(=O)O[C@H]([C@H](C)C[C@@H]2CC[C@@H](OCCO)[C@H](OC)C2)CC(=O)[C@H](C)/C=C(\C)[C@@H](O)[C@@H](OC)C(=O)[C@H](C)C[C@H](C)/C=C/C=C/C=C/1C [everolimus] + COc1cc(Nc2ncc(F)c(Nc3ccc4c(n3)NC(=O)C(C)(C)O4)n2)cc(OC)c1OC [Tamatinib] (first compound 0.02 µM, partner dose 0.4 µM)",cell count,MZ2-MEL,61.1%
same,cell count,MeWo,71.1%
same,cell count,RPMI7951,75.3%
same,cell count,RVH-421,85.3%
same,cell count,SkMel28,52.6%
same,cell count,SkMel30,67.4%
same,cell count,SkMel5,105%
same,cell count,UACC257,54.8%
same,cell count,UACC62,76.8%
same,cell count,WM115,72.8%
same,cell count,WM1716,80.7%
same,cell count,WM1745,66.8%
same,cell count,WM3526,72.5%
same,cell count,WM3619,95.4%
same,cell count,WM451Lu,80.3%
"CO[C@H]1C[C@@H]2CC[C@@H](C)[C@@](O)(O2)C(=O)C(=O)N2CCCC[C@H]2C(=O)O[C@H]([C@H](C)C[C@@H]2CC[C@@H](OCCO)[C@H](OC)C2)CC(=O)[C@H](C)/C=C(\C)[C@@H](O)[C@@H](OC)C(=O)[C@H](C)C[C@H](C)/C=C/C=C/C=C/1C [everolimus] + N#Cc1c(O)c2c(-c3ccc(-c4ccccc4O)cc3)csc2[nH]c1=O [A769662] (first compound 0.02 µM, partner dose 2 µM)",cell count,MZ2-MEL,74.9%
same,cell count,MeWo,75.1%
same,cell count,RPMI7951,64.3%
same,cell count,RVH-421,53.5%
same,cell count,SkMel28,68.6%
same,cell count,SkMel30,62.4%
same,cell count,SkMel5,96.8%
same,cell count,UACC257,66.3%
same,cell count,UACC62,60%
same,cell count,WM115,73%
same,cell count,WM1716,70.8%
same,cell count,WM1745,85.4%
same,cell count,WM3526,84.7%
same,cell count,WM3619,72.4%
same,cell count,WM451Lu,82.7%
"CO[C@H]1C[C@@H]2CC[C@@H](C)[C@@](O)(O2)C(=O)C(=O)N2CCCC[C@H]2C(=O)O[C@H]([C@H](C)C[C@@H]2CC[C@@H](OCCO)[C@H](OC)C2)CC(=O)[C@H](C)/C=C(\C)[C@@H](O)[C@@H](OC)C(=O)[C@H](C)C[C@H](C)/C=C/C=C/C=C/1C [everolimus] + Cc1cc([N+](=O)[O-])ccc1NS(=O)(=O)c1cc(Cl)ccc1Cl [FH535] (first compound 0.02 µM, partner dose 1 µM)",cell count,MZ2-MEL,68.9%
same,cell count,MeWo,74.3%
same,cell count,RPMI7951,87.2%
same,cell count,RVH-421,65.1%
same,cell count,SkMel28,47.3%
same,cell count,SkMel30,68.4%
same,cell count,SkMel5,95.7%
same,cell count,UACC257,75%
same,cell count,UACC62,63.8%
same,cell count,WM115,71.6%
same,cell count,WM1716,75.6%
same,cell count,WM1745,78.9%
same,cell count,WM3526,65.5%
same,cell count,WM3619,68.2%
same,cell count,WM451Lu,85.4%
"Nc1ncn([C@H]2C[C@H](O)[C@@H](CO)O2)c(=O)n1 [decitabine] + N#Cc1c(O)c2c(-c3ccc(-c4ccccc4O)cc3)csc2[nH]c1=O [A769662] (first compound 0.5 µM, partner dose 10 µM)",cell count,501Mel,76%
same,cell count,A101D,73.2%
same,cell count,A2058,68.4%
same,cell count,A375,110%
"CO[C@H]1C[C@@H]2CC[C@@H](C)[C@@](O)(O2)C(=O)C(=O)N2CCCC[C@H]2C(=O)O[C@H]([C@H](C)C[C@@H]2CC[C@@H](OCCO)[C@H](OC)C2)CC(=O)[C@H](C)/C=C(\C)[C@@H](O)[C@@H](OC)C(=O)[C@H](C)C[C@H](C)/C=C/C=C/C=C/1C [everolimus] + OCCn1cc(-c2cnc3nnn(Cc4ccc5ncccc5c4)c3n2)cn1 [PF04217903] (first compound 0.02 µM, partner dose 1 µM)",cell count,MeWo,78%
same,cell count,RPMI7951,103%
same,cell count,RVH-421,71.3%
same,cell count,SkMel28,50.3%
same,cell count,SkMel30,73%
same,cell count,SkMel5,96.3%
same,cell count,UACC257,76.3%
same,cell count,UACC62,68.4%
same,cell count,WM115,79%
same,cell count,WM1716,90.1%
same,cell count,WM1745,94.7%
same,cell count,WM3526,97.4%
same,cell count,WM3619,64.1%
same,cell count,WM451Lu,86.4%
"Nc1nc(F)nc2c1ncn2[C@@H]1O[C@H](CO)[C@@H](O)[C@@H]1O [fludarabine] + Cn1nnc2c(C(N)=O)ncn2c1=O [temozolomide] (first compound 0.2 µM, partner dose 2 µM)",cell count,MeWo,27.5%
same,cell count,RPMI7951,79%
same,cell count,RVH-421,98.9%
same,cell count,SkMel28,79.2%
same,cell count,SkMel30,22.8%
same,cell count,UACC62,71.6%
same,cell count,WM115,90.4%
same,cell count,WM1716,91.5%
same,cell count,WM1745,112%
same,cell count,WM3526,27.4%
same,cell count,WM3619,102%
same,cell count,WM451Lu,40.2%
"Nc1ncn([C@H]2C[C@H](O)[C@@H](CO)O2)c(=O)n1 [decitabine] + Cn1cc(/C=C2\C(=O)Nc3cccnc32)c2ccccc21 [GW441756] (first compound 0.5 µM, partner dose 2 µM)",cell count,501Mel,106%
same,cell count,A101D,75.5%
same,cell count,A2058,100%
same,cell count,A375,124%
"CO[C@H]1C[C@@H]2CC[C@@H](C)[C@@](O)(O2)C(=O)C(=O)N2CCCC[C@H]2C(=O)O[C@H]([C@H](C)C[C@@H]2CC[C@@H](OCCO)[C@H](OC)C2)CC(=O)[C@H](C)/C=C(\C)[C@@H](O)[C@@H](OC)C(=O)[C@H](C)C[C@H](C)/C=C/C=C/C=C/1C [everolimus] + CC(C)CCN1c2nc(Nc3cc(F)c(O)c(F)c3)ncc2N(C)C(=O)C1C [BID1870] (first compound 0.02 µM, partner dose 0.2 µM)",cell count,MeWo,67.2%
same,cell count,RPMI7951,76.4%
same,cell count,RVH-421,86.6%
same,cell count,SkMel28,59.2%
same,cell count,SkMel30,78%
same,cell count,SkMel5,106%
same,cell count,UACC257,75.3%
same,cell count,UACC62,54.5%
same,cell count,WM115,79.1%
same,cell count,WM1716,67.6%
same,cell count,WM1745,81%
same,cell count,WM3526,59.5%
same,cell count,WM3619,61.2%
same,cell count,WM451Lu,71.7%
"Nc1nc(F)nc2c1ncn2[C@@H]1O[C@H](CO)[C@@H](O)[C@@H]1O [fludarabine] + Oc1nc(-c2ccc(C(F)(F)F)cc2)nc2c1CSCC2 [XAV939] (first compound 0.2 µM, partner dose 2 µM)",cell count,MeWo,31.3%
same,cell count,RPMI7951,85.4%
same,cell count,RVH-421,85.5%
same,cell count,SkMel28,77.5%
same,cell count,SkMel2,2.77%
same,cell count,SkMel30,16.7%
same,cell count,SkMel5,49.3%
same,cell count,UACC257,90.6%
same,cell count,UACC62,91.2%
same,cell count,WM115,86.5%
same,cell count,WM1716,67.8%
same,cell count,WM1745,77.9%
same,cell count,WM3526,23.9%
same,cell count,WM3619,109%
same,cell count,WM451Lu,45.3%
